# Laboratory results published in article PMC6919601, “Identification of Plasmodium dipeptidyl aminopeptidase allosteric inhibitors by high throughput screening” (PLoS ONE, 2019).
# Among all 110,000 compounds or so, about 230 (0.21%) showed an effect of 50% or more. The list shows a part of the results.
# Target: DPAP1 (Plasmodium falciparum, UniProt Q8IIJ9)
# Experiment: primary screen, percent inhibition; read by cleavage of a fluorogenic dipeptide substrate; higher = more effect of the substance
# Design: species or system P. falciparum D10 trophozoite lysates; single well
# 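Also: 30 min substrate incubation versus DMSO and 10 µM JCP410 controls.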
# Chain of DPAP1 (Q8IIJ9 whole entry, looked up): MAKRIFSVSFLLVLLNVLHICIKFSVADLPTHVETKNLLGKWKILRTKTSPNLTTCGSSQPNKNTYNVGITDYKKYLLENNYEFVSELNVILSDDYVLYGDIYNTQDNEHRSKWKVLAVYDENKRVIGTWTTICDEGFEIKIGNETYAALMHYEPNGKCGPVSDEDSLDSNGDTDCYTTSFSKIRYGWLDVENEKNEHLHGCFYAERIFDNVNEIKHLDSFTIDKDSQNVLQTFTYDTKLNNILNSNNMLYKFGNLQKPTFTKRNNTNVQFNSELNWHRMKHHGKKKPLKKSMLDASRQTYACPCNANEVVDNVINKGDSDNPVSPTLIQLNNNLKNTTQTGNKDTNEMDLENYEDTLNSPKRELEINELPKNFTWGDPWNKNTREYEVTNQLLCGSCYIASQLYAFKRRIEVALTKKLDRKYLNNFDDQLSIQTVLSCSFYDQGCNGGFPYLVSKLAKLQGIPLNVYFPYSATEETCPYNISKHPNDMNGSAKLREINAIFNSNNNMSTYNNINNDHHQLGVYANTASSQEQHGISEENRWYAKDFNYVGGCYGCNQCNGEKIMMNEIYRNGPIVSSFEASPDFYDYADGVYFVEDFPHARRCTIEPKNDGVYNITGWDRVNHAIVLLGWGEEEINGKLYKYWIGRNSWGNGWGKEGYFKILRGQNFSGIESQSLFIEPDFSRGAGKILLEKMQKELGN
row,SMILES,% Inhibition @ 10 uM [%]
1,CCCCN(C)S(=O)(=O)c1csc(C(N)=O)c1,-0.256
2,Cc1ccc(O)c(NC(=O)c2ccc3c(c2)C(=O)N(CCC(C)C)C3=O)c1,13.2
3,NS(=O)(=O)c1ccc(NC(=O)c2ccc3c(c2)OCO3)cc1,1.88
4,COc1cc(NC(=O)COc2ccccc2)ccc1NC(=O)c1ccco1,-1.65
5,FC(F)(F)c1ccccc1C1CC(c2ccc(Br)cc2)=NN1c1ccccc1 (stereo not shown),0.219
6,CCOc1ccccc1/C=C1/N=C(c2cc(Cl)ccc2OC)OC1=O,1.25
7,Cc1cccc(CN2CCC(O)CC2)c1,3.1
8,O=C(/C=C/c1ccc(Cl)cc1Cl)Nc1ccc2c(c1)OCO2,5.31
9,COc1ccccc1[C@@H](C)C[C@H](NC(=O)OCc1ccccc1)C(=O)NCC#N,-5.2
10,COc1cc(CN2COc3c(Cl)cc4c5c(c(=O)oc4c3C2)CCC5)cc(OC)c1OC,-0.808
11,O=C(N1CCC(Cc2ccccc2)CC1)C1(S(=O)(=O)c2ccc(Cl)cc2)CC1,3.5
12,CCN(CC)c1ncnc2sc(C(=O)N(C)Cc3ccccc3)c(C)c12,1.2
13,COC(=O)c1ccc(C2CC(=O)N3C(=C2C#N)SCC3(O)c2ccc(C)cc2)cc1 (stereo not shown),1.64
14,Cc1ccc(OCC(=O)c2cc(C)c(O)cc2O)cc1,10.2
15,C/C=C/C=C/C(=O)Nc1cnc(O)nc1O,4.81
16,CC(C)CC(=O)N1CCN(CC/N=C/C2=C(O)CC(c3ccc(Cl)cc3)CC2=O)CC1 (stereo not shown),-1.6
17,Cc1ccc(-n2nc3c(=O)n(CCCC(=O)NCc4cccnc4)nc(C)c3c2C)cc1,-0.665
18,O=C(CC1Sc2ccccc2NC1=O)Nc1ccc(O)c(Cl)c1 (stereo not shown),0.795
19,O=C(O)c1ccc(Nc2nc(C(F)(F)F)c(-c3ccccc3)s2)cc1,6.31
20,COc1cc(NC(=O)c2cnn3c(C(F)F)cc(-c4ccccc4)nc23)cc(OC)c1OC,8.08
21,NC(=O)Nc1ccccc1C(=O)NCCc1ccccc1,4.97
22,CCCc1nn(-c2ccc(F)cc2)c(O)c1/C=N/Cc1ccc2c(c1)OCO2,-4.6
23,CCc1ccc(CNC(=O)C2CCCN(S(=O)(=O)N3CCOCC3)C2)cc1 (stereo not shown),0.0882
24,CC(C(=O)c1ccccc1)n1cnc2ccccc2c1=O (stereo not shown),-4.82
25,O=C(O)CN1C(=O)C(O)=C(C(=O)c2ccc(Cl)cc2)C1c1ccccc1 (stereo not shown),2.75

row,SMILES,% Inhibition @ 10 uM [%]
1,Brc1ccc(C2=CC(c3ccc(Br)cc3)n3ncnc3N2)cc1 (stereo not shown),-1.37
2,CCOC(=O)c1c(N)sc2c1CC1C(=O)N(C3CCCCC3)C(=O)C1C2 (stereo not shown),6.63
3,CSc1ncc(CNCc2ccc3c(c2)OCO3)c(N)n1,0.324
4,CCN1C2=C(C(=O)CCC2)C(c2cc(Br)ccc2OCC(=O)O)C2=C1CCCC2=O,-7.18
5,Nc1cccc(NC(=O)c2cccc(N)c2)c1,-1.45
6,CC1CCCCC1NC(=O)c1ccc(CS(=O)(=O)c2cccc(C(F)(F)F)c2)o1 (stereo not shown),-3.09
7,O=c1[nH]c(=O)n(Cc2ccccc2)cc1F,3.61
8,Cc1nn(C(C)C(=O)NCCCN2CCCC2=O)c(=O)c2c1sc1ccccc12 (stereo not shown),-2.13
9,C=CCOc1cccc(C2C(C(=O)c3cccs3)=C(O)C(=O)N2Cc2cccnc2)c1 (stereo not shown),-12.2
10,CC(C)(C)NC(=O)CSc1nsc(SCC(=O)NC(C)(C)C)c1C#N,-3.26
11,CN(c1ccc(C(=O)Nc2ccc(F)cc2F)cc1)S(C)(=O)=O,-11.4
12,O=C(Nc1ccc2ccccc2c1)c1onc2c1CCCC2,-7.4
13,CCCCn1c(N)c(S(=O)(=O)c2ccccc2)c2nc3ccccc3nc21,7.66
14,CCc1nc2ccccc2c(NC(=O)CN(CC)CC)c1C,0.266
15,COc1ccc2c(CNCc3ccc(OC(C)C)cc3)c(C(=O)O)n(Cc3ccc(F)cc3)c2c1,2.33
16,CN1C(=O)/C(=C2/Sc3ccccc3N2C)S/C1=N\c1ccc(O)cc1,0.52
17,CCOc1ccc(C(=O)Nc2cccc(Cl)c2C)cc1,4
18,COc1ccc(N(C(C)C(=O)Nc2ccccc2Cl)S(C)(=O)=O)cc1 (stereo not shown),-2.44
19,Cc1oc(-c2ccccc2F)nc1CN1CCC(C(=O)NCc2ccccc2Cl)CC1,-1.05
20,O=C(NCCCCNC(=O)c1cnccn1)c1cnccn1,2.32
21,O=C(O)C1CC(=O)N(Cc2ccccc2)/C(=N/c2ccc(F)cc2)S1 (stereo not shown),1.28
22,Cc1n[nH]c(C)c1CCCCCCOc1ccc(C(C)(C)C)cc1,-8.01
23,Cc1ccc(CSCC(=O)Nc2ccccc2)cc1,-4.67
24,N#CC1=C2SCC(O)(c3ccccc3)N2C(=O)CC1c1cccs1 (stereo not shown),-4.74
